Assay results from patent publication US20250215104A1 (WALDEN BIOSCIENCES, published 2025).

Legend:
uPA [1] = biological target: T1, uPA (Homo sapiens (Human), UniProt P00749); experiment: BLI (Octet Red96E), hsuPAR 3 µg/mL on streptavidin sensor, uPA as analyte
T1 construct: Serine protease, endogenous ligand of uPAR

uPA [2] = biological target: T1, uPA; experiment: BLI (Octet Red96E), WAb0014 on AHC sensor, hsuPAR captured, uPA as analyte (in the presence of WAb0014)

- Kd (uPA [1]): 15.1 nM
- Kd (uPA [2]): 7.9 nM
B1: human suPAR (hsuPAR) recombinant protein (receptor)
chain: not shown
notes: it is written here as the same molecule; also called recombinant hsuPAR
